Measurements published in patent publication US6040291A, “Antimicrobial peptide” (Seikagaku Corporation, priority 1998, dated 2000).
Part of at least one peptide drawing is inferred or uncertain, most often the ends. Where no end group is shown, it is not given here.

System: E. coli O157:H7
Experiment: Antimicrobial activity on E. coli O157:H7 (CFU count, IC50)
Type: cell-based
Procedure: Measurement method for antimicrobial activity: For the measurement of antimicrobial activity, E. coli [E. coli O157:H7 (collected from an E. coli O157 patients in Okayama prefecture, Kanagawa prefecture and Morioka city of Iwate Prefecture)], Klebsiella or Methicillin resistant Staphylococcus aureus; MRSA] was used.
These bacteria were grown in a liquid medium (Tryptosoy broth; manufactured by Eiken Kagaku). The bacteria cells in a logarithmic growth phase were collected, washed with PBS (pH 7.2), and adjusted to a final concentration of 5 ×10^3 to 1×10^4 cells/ml. To 450 μl of cell suspension, 50 μl of samples (peptide) in various concentrations were each added and mixtures were incubated at 37° C. for 1 hour. After the incubation, 100 μl of each reaction mixture was spread on an agarose medium (Nutrient agar; manufactured by Eiken Kagaku). This was incubated at 37° C. for 24 hours and the colony-forming unit (CFU) was counted to obtain 50% inhibition concentration (IC50).
Polymyxin B (known antimicrobial agent), A1, the peptide of the present invention (b), A3, the peptide of the present invention (d), A5 and A6 were used as samples and their antimicrobial activities on E. coli [E. coli O157:H7 (collected from E. coli O157 patients in Okayama prefecture, Kanagawa prefecture and Morioka city of Iwate Prefecture)] were examined by the above-described measurement method.
A1, the peptide of the present invention (b), the peptide of the present invention (a) and the peptide of the present invention (c) were used as samples and their antimicrobial activities on E. coli (E. coli O157:H7 (collected from E. coli O157 patients in Okayama prefecture)) were examined by the above-described measurement method.

[1] = Table 7, isolate from Okayama prefecture

Sequence: EKIGKEFKRIVQRIKDFLRNLV [Peptide A3, reference compound]
- Antimicrobial Activity on E. Coli O157:H7 (IC50) (Table 6, isolate Kanagawa): 35 µg/mL
- Antimicrobial Activity on E. Coli O157:H7 (IC50) (Table 6, isolate Morioka): > 20 µg/mL
- Antimicrobial Activity on E. Coli O157:H7 (IC50) (Table 6, isolate Okayama): > 10 µg/mL

Sequence: EKIGKLFKRIVQRILDFLRNLV [(d)]
- Antimicrobial Activity on E. Coli O157:H7 (IC50) (Table 6, isolate Kanagawa): < 2.5 µg/mL
- Antimicrobial Activity on E. Coli O157:H7 (IC50) (Table 6, isolate Morioka): 3.0 µg/mL
- Antimicrobial Activity on E. Coli O157:H7 (IC50) (Table 6, isolate Okayama): 2.3 µg/mL

Sequence: FRKSKEKIGKEFKRIVQRIKDFLRNLV [Peptide A1, reference compound]
- Antimicrobial Activity on E. Coli O157:H7 (IC50) (Table 6, isolate Kanagawa): 14 µg/mL
- Antimicrobial Activity on E. Coli O157:H7 (IC50) (Table 6, isolate Morioka): > 20 µg/mL
- Antimicrobial Activity on E. Coli O157:H7 (IC50) (Table 6, isolate Okayama): > 10 µg/mL
- Antimicrobial Activity on E. Coli O157:H7 (IC50) [1]: > 10 µg/mL

Sequence: FRKSKEKIGKFFKRIVQRIFDFLRNLV [(c)]
- Antimicrobial Activity on E. Coli O157:H7 (IC50) [1]: 0.7 µg/mL

Sequence: FRKSKEKIGKLFKRIVQRIKDFLRNLV [(a)]
- Antimicrobial Activity on E. Coli O157:H7 (IC50) [1]: 1.2 µg/mL

Sequence: FRKSKEKIGKLFKRIVQRILDFLRNLV [(b)]
- Antimicrobial Activity on E. Coli O157:H7 (IC50) (Table 6, isolate Kanagawa): < 2.5 µg/mL
- Antimicrobial Activity on E. Coli O157:H7 (IC50) (Table 6, isolate Morioka): 1.3 µg/mL
- Antimicrobial Activity on E. Coli O157:H7 (IC50) (Table 6, isolate Okayama): 0.8 µg/mL
- Antimicrobial Activity on E. Coli O157:H7 (IC50) [1]: 0.8 µg/mL

Sequence: KEKIGKEFKRIVQRIKDFLRNLV [Peptide A6]
- Antimicrobial Activity on E. Coli O157:H7 (IC50) (Table 6, isolate Kanagawa): > 20 µg/mL

Sequence: SKEKIGKEFKRIVQRIKDFLRNLV [Peptide A5]
- Antimicrobial Activity on E. Coli O157:H7 (IC50) (Table 6, isolate Kanagawa): > 20 µg/mL
